Experimental findings from paper PMC6919601, “Identification of Plasmodium dipeptidyl aminopeptidase allosteric inhibitors by high throughput screening” (PLoS ONE, 2019) are described below.

About 230 (0.21%) of roughly 110,000 compounds showed an effect of 50% or more. Some of the results follow.
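Further: 30 min substrate incubation versus DMSO and 10 µM JCP410 controls.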

The target in the assay is DPAP1 (Plasmodium falciparum, UniProt Q8IIJ9). The assay can be described thus: primary screen, percent inhibition; read by cleavage of a fluorogenic dipeptide substrate; higher = more effect of the substance. The arrangement: species or system P. falciparum D10 trophozoite lysates; single well.
DPAP1, sequence (Q8IIJ9 whole entry, looked up): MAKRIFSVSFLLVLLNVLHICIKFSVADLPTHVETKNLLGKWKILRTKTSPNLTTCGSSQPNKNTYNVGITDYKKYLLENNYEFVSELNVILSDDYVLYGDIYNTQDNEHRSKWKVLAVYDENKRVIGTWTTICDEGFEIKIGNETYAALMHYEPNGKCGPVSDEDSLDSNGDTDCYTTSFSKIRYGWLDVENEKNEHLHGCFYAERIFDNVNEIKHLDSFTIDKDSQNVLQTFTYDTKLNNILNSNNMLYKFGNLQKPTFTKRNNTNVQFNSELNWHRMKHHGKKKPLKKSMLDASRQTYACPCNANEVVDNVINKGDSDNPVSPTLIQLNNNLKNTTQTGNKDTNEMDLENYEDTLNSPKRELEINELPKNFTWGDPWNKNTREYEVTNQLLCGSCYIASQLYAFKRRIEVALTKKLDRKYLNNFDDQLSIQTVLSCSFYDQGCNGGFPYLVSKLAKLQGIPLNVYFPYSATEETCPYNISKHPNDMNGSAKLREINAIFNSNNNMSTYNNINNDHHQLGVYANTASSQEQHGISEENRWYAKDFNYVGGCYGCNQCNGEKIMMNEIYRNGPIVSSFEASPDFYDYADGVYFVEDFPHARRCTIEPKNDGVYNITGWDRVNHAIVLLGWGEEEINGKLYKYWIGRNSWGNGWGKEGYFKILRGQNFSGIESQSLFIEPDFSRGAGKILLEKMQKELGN
For the molecule `O=C(Cc1csc2ccccc12)NCc1ccc2c(c1)OCO2`, the “% Inhibition @ 10 uM” value is listed as -1.75%. For the molecule `COc1ccc(CNCc2cccc(Cl)c2)cc1OC`, the “% Inhibition @ 10 uM” value is recorded as 4.59%. The result for `OC1CCN(Cc2ccc(Cl)c(Cl)c2)C1` (centres unmarked) reads -5.26%. The result for `CCC(C)NC(=O)C1CCCN(S(=O)(=O)c2c(C)noc2/C=C/N(C)C)C1` (centres unmarked) reads -6.52%; that for `Cc1ccc2nc3c(O)n(CC(=O)NC4CCCC(C)C4C)ncc-3c2c1` (centres unmarked), 4.58%.

For `CCOc1ccc(CNS(=O)(=O)c2csc(C(=O)N3CCCC3)c2)cc1OC`, the “% Inhibition @ 10 uM” value is on record as -6.86%. For the molecule `OC1(/C=C/C2(O)CCCCC2)CCCCC1`, the “% Inhibition @ 10 uM” value was -1.29%. As to `CC(C(=O)N1CCN(Cc2ccccc2)CC1)n1sc2ccccc2c1=O` (centres unmarked), the “% Inhibition @ 10 uM” value is -2.94%. The result for `OCCOc1ccc(C2=NCCO2)cc1` reads 0.135%; that for `CCCCOc1ccc(/C=C(\C#N)c2nc(-c3ccc(C)cc3C)cs2)cc1`, -0.771%; that for `COc1ccc2c(CNCc3ccccc3Cl)c(C(=O)O)n(Cc3ccc(F)cc3Cl)c2c1`, 3.64%. The result for `Cc1ccc(COc2ccc(C3C(C#N)=C(N)Oc4cc5c(cc43)OCO5)cc2)cc1` (centres unmarked) reads 0.565%; that for `Cc1ccc(-n2c(SCC(=O)N3CCOCC3)nc(=O)c(Cc3ccccc3)c2O)cc1`, -1.07%. The result for `COC1CCCCC1NCCc1ccc(Cl)cc1` (centres unmarked) reads -1.85%; that for `O=C1CC(c2ccco2)Cc2nc(NC3CC3)ncc21` (centres unmarked), 1.02%; that for `CS(=O)(=O)N1CCC(C(=O)NCCCN2CCCCC2)CC1`, -4.97%. Consider `Cc1cc2n(n1)C(c1cccc(O)c1O)Nc1c(C)cccc1-2` (centres unmarked), for which the “% Inhibition @ 10 uM” value is recorded as -4.52%. The result for `O=C(O)C/N=C(\NS(=O)(=O)c1ccc(Cl)cc1)c1ccccc1` reads 1.25%; that for `O=c1/c(=C/c2cccc(O)c2)sc2n1CCCN=2`, 1.21%; that for `O=C(Nc1cccc(Cl)c1)Nc1ccccc1OC(F)(F)C(F)Cl` (centres unmarked), 2.38%. Consider `COc1cc(CN2CCCN(C)CC2)cc(OC)c1OC`, for which the “% Inhibition @ 10 uM” value is listed as -3.69%.

`O=c1c2ccccc2nc(/C=C/c2cccnc2)n1-c1ccccc1`: the “% Inhibition @ 10 uM” value was 1.37%. With `OC(Cn1ccnc1)(c1ccc(F)cc1)c1ccccn1` (centres unmarked), the “% Inhibition @ 10 uM” value was 2.62%. The result for `CO/C(O)=C1\C(C)=NC(=S)NC1c1cccc2ccccc12` (centres unmarked) reads -5.28%. The result for `CC1(C)[N+]([O-])=c2ccccc2=[N+]1[O-]` reads 1.84%; that for `CCCc1cc(Cl)n2c(nc3ccccc32)c1C#N`, 0.9%; that for `Cc1cccc(N/C=C2/C(=O)NC(=O)N(c3ccccc3)C2=O)c1C`, 2.69%. The result for `CSc1ccc(/C=c2/sc3nc4c(C)c(C)ccc4n3c2=O)cc1` reads -0.479%; that for `CCOC(=O)c1ccc(CN(Cc2ccccc2)S(=O)(=O)c2ccc(F)cc2)cc1`, -1.99%.
